# Reference: the RNAGym collection of RNA variant scans (doi:10.1093/nar/gkz1192)
# Read counts are not given, so values of variants with three or more changes are uncertain.
# B1: CPEB3 Ribozyme (parent)
# chain: UAACAGGGGGCCACAGCAGAAGCGUUCACGUCGCAGCCCCUGUCAGAUUCUGGUGAAUCUGCGAAUUCUGCUGUAUAUCUC
# Variants of: B1
# Experiment: self-cleavage, relative activity (ratio to wild type); higher = more cleavage; in vitro, sequencing
# Procedure, shortened: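 For each CPEB3 ribozyme variant, relative activity is its cleaved/total read fraction divided by the unmutated ribozyme's. Barcoded error-prone PCR libraries were transcribed by T7 RNA polymerase (5 hours, 37°C) and held in DNase I for 15 min before an EDTA stop, with cleavage occurring throughout. Template-switching reverse transcription and Illumina sequencing were used to read the RNAs. A 5-read minimum applied, and results are the mean of three batches.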
row,Variant,self-cleavage
1,CAACAGGGGGCCACAGCUGAAGCGAUCACGUCGCAGCCCCUGUCAGAUCCUGGUGAAUCAGCGAAUUCUGCUGUAUAUCUC,0
2,CAACUGGGGGCCACAGCAGAAGCGUUCUCGUCGCAGCCCCUGUCAGAUUCUCGUGAAACUGCCAAUUCUGCCGUAUAUCUC,0.46
3,CAACAGGGGGCCACUGCAGAAGCGUACACGUCGCAGCCCCUGACAGAUUCUGGUGAAUCUGCUAAUUCUGCUGUAUAUCUC,0.04
4,CAACAGGGGGCCACGGCAGAAGCGUUCACGUCGCAGCCCCUGUCAGAUUCUGGUGAAUCUGCGAAUUCUGCUGUAUUUCUC,0.41
5,CAACAGGGGGCCACAGCUGAAGCGCCCACGUCGCGGCCCCUGUCAGAUUCUGGUGAAUCUGCGAAUUCUGCUGUAUAUCUC,0.08
6,CAACAGGGGGCCACGGCAGAAGCGUUCACGUCGCAGCCCCCGUCAGAUUCUGGUGAAUCCGCGAAUUCUGCUGUAUAUCUC,0.13
7,CAACAGGGGGCCACGGCAGAAGCGUUCACGUCGCAGCCCCUGUCAGAUUCAGGUGAAUCUGCGAAUUCUGCCGUAUAUCUC,1.08
8,CAACUGGGGGCCACAGCAGAAGCGUUCACGUCGCAGCCCCUGCCAGAAUCUGGUGAAUCCGCGAAUUCUGCUGUAUAUCUC,0.07
9,CAACUGGGGGCCACAGCAGAAGCGUUCACGUCGCGGCCCCUGUCAGCUUCUGGUGAAUCUGCGAAUUCUGCUGUAUAUCUC,0.8
10,CAACUGGGGGCCACAGCAGAGGCGUUCACGCCGCAGCCCCCGUCAGAUUCUGGUGAAUCUGCGAAUUCUGCUGUAUAUCUC,0.09
11,CAACAGGGGGCCACAGCCGAAGCGUCCACGUCGCGGCCCCUGUCAGAUUCUGGUGAAUCUGCGAAUCCUGCUGUAUAUCUC,0.12
12,CAACUGGGGGCCACAGCAGAAGCGCCCACGUCGCAGCCCCUGUCUGAUUCUUGUGAAUCUGCGAAUUCUGCUGUAUAUCUC,0.43
13,CAACAGGGGGCCACGGCAGAGGCGUACACGUCGCAGCCCCAGUCAGAUUCUGGUGAAUCUGGGAAUUCUGCUGUAUAUCUC,0.04
14,CAACAGGGGGCCGCAGCAGAAGCGUUCACGUCGCAGCCCCUGUCAGAUUCUGAUGGAUCUGCGAAAUCUGCAGUAUAACUC,0.07
15,CAACAGGGGGCCGCAGCAGAAGCGUUCACGUCGCAGCCCCUGUCGGAUUCUGGUGAGUCUGCGAAUUCUGCUGUAUAUUUC,0.33
16,CAACAGGGGGCCACAGCUUAAGCGUUCACGUCGCAGCCCCCGGCAGAUUCUGGUGAAUCUGCGAAUUCUGCUGUAUAUCUC,0.05
17,CAACUGGGGGCCACACCAGAAGCGUUCACGUCGCAGCCCCAGUCAGAUUCUGGUGAAUCUGCGAAUUCUGCUGUAUAUCUC,0.21
18,CAACGGGGGGCCACAGCAGAUGCGUUCACGUCGCAGCCUCUGUCAGAUUCUGGUGAAUCUGCGAAUCCUGCUGUAUAUCUC,0.28
19,CAGCAGGGGGCCACAGCAGAAGCGUUCACGUCGCAGCCCCCGUCAGAUUCUGGUGAAUCCGCGAAUUCUGCUGUAUAUCUC,0.47
20,CAACGGGGGGUCACAGCAGAAGCGUUCACGUCGCAGCCCCUGUCAGAUUCUGGUGAAUCUGCGAAUUCUGCUGUAUAUCUC,0.44
21,CACCAGGGGGCCACAGCGGGAGCGUUCACGUCGCAGCCCCUGUCAGAUUCUGGUGAGUCUGCGAAUUCUGCUGUAUAUCUC,0.61
22,CAUCAGGGGGCCACAGCAGAAGCGUUCACGUCGCAGCCCCCGUCAGAUUCUGGUGAAUCAGCGAAUUCUGCUGUAUAUCUC,0.41
23,CAGCAGGGGGCCACUGCAGAAGCGUUCACGUCGCAGCCCCUGUCUGGUUCUGGUGAAUCUGCGAAUUCUGCUGUGUAUCUC,0.26

row,Variant,self-cleavage
1,CAACGGGGGGCCACAGCAGAAGCGUUCACGUCGCAGCCCCUGUCAGAUUCUGGUGAAUCUGCGGAUUCUGCUGUAUAUCUC,0.25
2,CAGCAGGGGGCCACAGCAGGAGCGUCCACGUCGCUGCCCAUGUCAGAUUCUGGUGAAUCUGCGAAUUCUGCUGUAUAUCUC,0.51
3,CAGCAGGGGGCCACAGUAGAAGCGUUCCCGUCGUAGCCCCUGUCAGAUUCUGGUGAAUCUGCGAAUUCUGCUGUAUAUCUC,0.08
4,CAACUGGGGGCCACAGCAGAAGCGUUCACGCCGCAGCCCCAGUCAGAUUCUGGCGAAUCUGCGAACUCUGCUGUACAUCUC,0.19
5,CAACAGGGGGCCUCAGCAGAAGCGUACACGUCGCAGCCCCUGUCAGACUCUGGUGAAUCUGCGAAUUCUGCUGUAUAUCUC,0.53
6,CAACAGGGGGCCACAGCGGAAGCGUUCACGUCGCGGCCCCUGUCAGAUUCUGGUGAAUCUGCGAAUUUUGCCGUAUAUCUC,0.84
7,CUACAGGGGGCCACAACAGAAGCGUACACGUCGCAGCCCCUGUCAGAUUCUGGUGAAUCUGCGAGUUCUGCUGUAUAUCUC,0.09
8,CAACGGGGGGCCACAGCAGAAGCGUCCACGUCGCAGCCCCUGUCAGAUUCUGGUGAAUCUGCGAGUCCUACUGUAUAUCUC,0.17
9,CAACAGGGGGCCACAGCCGAAGCGUUCACGUCGCAGCCCCUGCCAGAUUCUGGAGAAUCUGCGAAUUCUGCUGUAUAUCUC,0.18
10,CAACAGGGGGCCACGGCAGAAGCGUUCACGUCGCAGCCCCUGUCCGAUUCUGGUGAAUCAGCGAAUUCUGCUGUAUAUCUC,0.08
11,CAACAGGGGGCCGCAGCAGAAGCGCUCACGUCGCAGCCCCUGUCAGAUUCUGGUGAAUCUGCGAAUUCUGCUGUAUAUCCC,0.09
12,CAACAGGGGGCCACCGCAGAAGCGUUCACGUCGCAGCCCCUGUCGGAUUCUGGUGAAUCUGCGGAUUCUGCUGUAUAUCUC,0.29
13,CAACAGGGGGCCUCAGCAGAGGCCUUCACGUCACAGCCCCUGUCAGAUACUGGUGAAUCUGCGAAUUCCGCUGUAUAUCUC,0.04
14,CAACCGGGGGCCACAGCAGAAGCGUCCGCGUCGCAGCCCCUGUCAGAUUCUGGUGAAUCUGCGAAUUCUGCUGUAUAUCUU,0.3
15,CAACAGGGGGCCACUGCUGAAGCGUUCUCGUCGCGGCCCCUGUCAGAUCCUGGUGAAUCUGCGAAUUCUGCUGUAAAUCUC,0.2
16,CAACAGGGGGCCCCAGCAGAAGCGUUCGCGACGCAGCCCCUGUCAGAUUCUGGUGUAUCUGCGAAUUCCGCUGUAUAUCUC,0.1
17,CAUCAGGGGGCCACUGCAGAAGCGUUCACGUCGCAGCCCCUGUCAGAUUCAGGCGAAUCUGCGAAUUCUGCUGUAUAUCUC,0.84
18,CAACAGGGGGCCGCAGCAGAUGCGUUCACGUCGCAGCCCCUGUCAGAUUCUGGUGAACCAGCGAAUUCUGCUGUAUAUCAC,0.16
19,CAACGGGGGGCCACAGCAGAAGCGUUCACGUCGCAGCCCCUGUCAGAUUCUGGUGAAUUUGCGAAUUCCGCUGUAUAUCUC,0.34
20,CAACGGGGGGCCACAGCAGAAGCGCUCACGUCGCAGCCCCUGUCAGAUUCUGGUGAAUCUGCGAGUUCUGCUGUAUAUCUC,0.33
21,CAACAGGGGGCCGCAGCAGAAGCGUUCACGUCGCAGCCCCUGUCAGAUUCUGGUAAAUCUGCGAAUUCUGCUGUAUAUCUC,0.8
22,CAACUGGGGGCCACAGCAGAAGCGUUCACGUCGCAGCCCCCGUCAGAUUCUGGUGAAUCUGCGAAUUCAGCUGUAUCUCUC,0.6
23,CACCAGGGGGCCACAGCUGAAGCGUUCACGUCGCAGCCCCUGUCAGAUUCUGGUGAAUCCGCGAAUUCAGCUGUAUAUCUC,0.98

row,Variant,self-cleavage
1,CAACAGGGGGCCUCAGCAGGAGCGCUCACGUCGCAGCCCCUGUCAGAUCCUGGUGAAUCUGGGAAUUCUGCUGUAUAUCUC,0.5
2,CAACAGGGGGCCACAGCGGAAGCGAUCACGUCGCAGCCCCUGUCAGAUUCUGGUGAAUCUGCGAAUUCUGCUGUAUAUCUC,0.43
3,CAACAGGGGGCCGCAGCAGAAGCGCUCACGUCGCGGCCCCUGUCAGAUUCUGGUGAAUCUGCGAAUUCUGCUGUAUACCUC,0.08
4,CAACGGGGGGCCACAGCAGAAGCGUUCACGUCGCAGCCCCUGUCGGAUUCUGGUGAAUCUGCGAAUUCUGCAGUAUAUCUC,0.3
5,CAACAGGGGGCCACAGCUGAAGCGUUCACGUCGCAGCCCCCGUCAGAUUCUGGUGAAUCUGUGAAUUCUGCUGUAUAUCUC,0.24
6,CAACAGGGGGCCACAGCUGAAGCGUUCGCGUCGCAGCCCCUGUCAGACACUGGUGAAUCUGCGAAUUCUGCUGUAUAUCUC,0.17
7,CAACAGGGGGCCGCGGCAGAAGCGUUCACGUCGCAGCCCCUGUCAGAUUCUGGUGAAUCUGCGAUUUCUGCUGUAUAUCUC,0.01
8,CAACUGGGGGCCACAGCGGAAGCGUUCACGUCGCGGCCCCUGUCAGAUUCUGGUGUAUCUGCGAAUUCUGCUGUAUAUCUC,0.45
9,CAACAGGGGGCCACUGCAGAAGCGUUCACGUCGCAGCCCCUGUCAGAUACUGGUGAAUCUGCGAAUUCUGCUGUAUAUCUC,0.29
10,CAACAGGGGGCCGCAGCAGAAGCGUUCACGUCGCAGCCCCUGUCAAUUUCUGGUGAAUCUGCGAAUCCUGCUGUAUAUCUC,0.09
11,CAACUGGGGGCCCCAGCAGAUGCGUUCAUGUCGCAGCCCCUGUCAGAUUCUGGUGAAUCUGCGAAUUCAGCUGUAUAUCUC,0.07
12,CAACAGGGGGCCUCAGCAGAAGCGUUCACGUCGCAGCCCCUGUCAGACUCUGGUGAAUCUGCGAAUUCAGCUGUAUAUCUC,0.36
13,CAACAGGGGGCCACUGCAGAAGCGUUCACGUCGCAGCCCCUGUCAGAUUCUGGUGAGACUGCGAAUUCUGCUGUAUAUCUC,0.05
14,CAACAGGGGGCCACCGCAGAAGCGUUCACGUCGCAGCCCCUGUCAGUUUCUGGUGGAUCCGCGAAUUCUGCUGUAUAUCUC,0.24
15,CAACAGGGGGCCCCAGCGGAAGCGUUCACGUCGCAGCCCCUGUCGGAUUCAGGGGAAUCUGCGAAUUCUGCUGUAUAUCUC,0.29
16,CAACAGGGGGCCACAGCGGAACCGUUCACGUCGCAGCCCCUGUCAGAUUCUGGUGAAUCUGCGAAUCCUGCUGUAUUUCUC,0.08
17,CAACAGGGGGCCACUGCAGAAGCGUUCACGUCGCAGCACCUGUCAGAUUCUGGUGAAUCUGCGAAUUCUGCUGUAUAUCUC,0.43
18,CAACAGGGGGCCACAGCUGAAGCGUUCACGCCGCAGCCCCUGUCAGAUUCUGGUGAAUCUGCGAAUUCUGCUGUAUGUCUC,0.33
19,CAACAGGGGGCCACAGCGGGAGCGUUCACGUUGCAGCCCCUGUCAGAUUCUGGUGGAUCUGCGGGUUCUGCUGUAUAUCUC,0.04
20,CAACAGGGGGCCUCAGCAGAAGCGUACACGUCGCAGCCCCUGUCAGAUUCUGGUGAAUCUGCGUGUUCUGCCGUAUAUCUC,0.08
21,CAACAGGGGGCCACAGCGGAAGCGUUCACGUCGCAGCCCCUGUCUGAUUCUGGUGAAUCUGCGAAUUCUGCUGUAUAUAAC,0.08
22,CUACAGGGGGCCACAGCAGAAGCGUUCACGUCGCAGCCCCUGUCAGAUUCUGGUGAAUCUGCGAAUUCCGCUGUAUAUCUC,0.55
